Data taken from ChEMBL document CHEMBL4888484, “Replenishing the malaria drug discovery pipeline: Screening and hit evaluation of the MMV Hit Generation Library 1 (HGL1) against asexual blood stage Plasmodium falciparum ,using a nano luciferase reporter read-out” (2022).
About 540 (0.36%) of roughly 150,000 compounds showed an effect of 50% or more. The list shows a part of the results.

The molecules below were run on Plasmodium falciparum (assay: Primary screen in NF54 nanoGlo assay, in single point, at 2uM, 72h; a lower Z score goes with more inhibition). Settings: timepoint 72 hour.
Type: functional, Erythrocyte
In the case of `O=C(Cc1cccnc1)NC1CCCC1Oc1ccccc1` (stereo not drawn), the “% Inhibition” value is reported as 1% and the Z score is reported as -0.09. In the case of `CCN(Cc1nnc(C)n1CC)C[C@H]1COc2ccccc2O1`, the “% Inhibition” value is reported as 7% and the Z score is reported as -1.01. `CC[C@@H](C(=O)Nc1nccs1)N1CCC(c2nnc[nH]2)CC1` was tested, and the “% Inhibition” value was -6% and the Z score was 0.95. With `O=C(Nc1ccncc1)c1cc(C2CC2)n[nH]1` the “% Inhibition” value was -7% and the Z score was 1.41. For `CN(C)[C@H]1CCN(C(=O)c2cnn(-c3nccc(-c4ccccc4C(F)(F)F)n3)c2C2CC2)C1`, the “% Inhibition” value was -21% and the Z score was 4.1. With `CCn1cnc2c1CCN(C(=O)Nc1cc([C@@H]3CCCO3)nn1C)C2` the “% Inhibition” value was 1% and the Z score was -0.15. For `O=C(Nc1cccc2ccccc12)c1cccc(NCc2ccc3c(c2)OCO3)c1`, the “% Inhibition” value was 2% and the Z score was -0.31. With `Cc1cc(C)n(-c2nc3c(c(=O)n2CC(=O)N(C)c2ccccc2)CCC3)n1` the “% Inhibition” value was -13% and the Z score was 1.49. For `CCc1nnc(CNC(=O)N2CC3(C2)CC3(F)F)s1`, the “% Inhibition” value was -10% and the Z score was 0.97. With `CCN1CC(=O)N[C@H]2CN(C(=O)CCn3ccnc3C)CC[C@@H]2OCc2cccc(c2)Oc2cc(OC(C)C)cc(c2)C1=O` the “% Inhibition” value was 27% and the Z score was -1.33. For `COC(=O)C1CCCC(C(=O)Nc2nnc(C(F)F)s2)C1` (stereo not drawn), the “% Inhibition” value was 2% and the Z score was -0.24. In the case of `CCN(CC1CCOCC1)C(=O)Nc1ccc2ccccc2c1`, the “% Inhibition” value is reported as -3% and the Z score is reported as 0.55. With `CCc1nc(CCNS(=O)(=O)N2CCC[C@H](C)C2)sc1C` the “% Inhibition” value was -8% and the Z score was 0.99. In the case of `CC1CCCCN1S(=O)(=O)C1CCS(=O)(=O)C1` (stereo not drawn), the “% Inhibition” value is reported as -1% and the Z score is reported as 0.07. In the case of `CCCC1C(c2ccc(OC)cc2)NC(c2ccc(OC)cc2)CC1(O)C#Cc1ccccc1` (stereo not drawn), the “% Inhibition” value is reported as -5% and the Z score is reported as 0.74. `COc1ccc(NC(=O)c2c(-c3ccccc3)nnc3ccc(C)cc23)cc1OC` was tested, and the “% Inhibition” value was 1% and the Z score was -0.15. With `CC1CCN(C[C@@H](O)CNc2nnc(C(F)(F)F)s2)CC1` the “% Inhibition” value was 31% and the Z score was -0.1. In the case of `NC(=O)C1CCN(C(=O)Cc2ccc(-c3ccccc3)cc2)CC1`, the “% Inhibition” value is reported as -4% and the Z score is reported as 0.36. With `CCCC[C@@]1(O)COC2(CN(C(=O)c3ccnn3CC)C2)C1` the “% Inhibition” value was 0% and the Z score was -0.03. `CC1CCCCN1C(=O)CN1CCN(C(=O)C(C)n2ccnc2-c2ccccc2)CC1` (stereo not drawn) was tested, and the “% Inhibition” value was -5% and the Z score was 0.47. With `CCc1c(C(=O)N(C)Cc2nc(C)cs2)c(=O)cc(C)n1C[C@H]1CCCN1CC` the “% Inhibition” value was -2% and the Z score was 0.22. For `Cn1c2c(cc(C(=O)NC[C@@H]3COc4ccccc4C3)c1=O)CCCC2`, the “% Inhibition” value was -3% and the Z score was 0.48. With `COc1cccc(C(=O)N2CCN(c3nnc(C(C)C)o3)CC2)c1` the “% Inhibition” value was -5% and the Z score was 0.62. For `N#Cc1ccc([C@H]2CC(O)=Nc3cccc4c3c2cn4Cc2cccc(F)c2)cc1`, the “% Inhibition” value was -11% and the Z score was 1.41. In the case of `CCCC1CC1NC(=O)N1CC(c2ccccc2)C2COCCC21` (stereo not drawn), the “% Inhibition” value is reported as -1% and the Z score is reported as 0.07. For `Cc1ccc(NC(=O)C2CCN(S(=O)(=O)c3ccc4c(c3)C[C@H](C)N4C(=O)C3CCC3)CC2)cc1`, the “% Inhibition” value was -14% and the Z score was 2.25. In the case of `O=C(c1ccccc1-n1ccnn1)N1CCn2c1nc1ccccc12`, the “% Inhibition” value is reported as -6% and the Z score is reported as 0.85. For `COc1ccc(-n2c(=O)[nH]c3nc(N4CCN(c5ccccn5)CC4)ncc3c2=O)cc1`, the “% Inhibition” value was 28% and the Z score was -3.63. For `COc1ccc(C)cc1NC(=O)c1coc(NC(=O)Cc2c(C)noc2C)n1`, the “% Inhibition” value was 0% and the Z score was 0.06. With `Clc1cccc(OC2CN(C[C@H]3CCCO3)C2)c1` the “% Inhibition” value was 6% and the Z score was -1.2. With `Cc1cc(O)ccc1NC(=O)Nc1cccnn1` the “% Inhibition” value was -11% and the Z score was 1.57. In the case of `COc1cc(F)ccc1[C@H](C(=O)O)N(C)CCO`, the “% Inhibition” value is reported as -24% and the Z score is reported as 2.38. In the case of `CCN(CC(=O)NCC1CCC1)C1CN(C(=O)OC(C)(C)C)C1`, the “% Inhibition” value is reported as -4% and the Z score is reported as 0.57. With `CCn1ccc(C(=O)N2CC(C)(C)[C@H]2c2ccccc2)n1` the “% Inhibition” value was -2% and the Z score was 0.28. `O=C(Cn1cncc(C(=O)NC2CCCC2)c1=O)Nc1ccc(F)cc1F` was tested, and the “% Inhibition” value was -4% and the Z score was 0.59. `O=C1C2C3C=CC(C3=C3CCCC3)C2C(=O)N1c1cccc(C(F)(F)F)c1` (stereo not drawn) was tested, and the “% Inhibition” value was -18% and the Z score was 1.95. With `Cc1ccc(N2CCN(C(=O)c3cc(-c4cccc5ccccc45)[nH]n3)CC2)cc1` the “% Inhibition” value was -7% and the Z score was 1.05. In the case of `Cn1nccc1C1CC2CCC(C1)N2C(=O)CS(C)(=O)=O` (stereo not drawn), the “% Inhibition” value is reported as -23% and the Z score is reported as 2.12. In the case of `COc1cc(C(=O)Nc2ccc(-n3cc(Br)cn3)nc2)cc2c1OCCCO2`, the “% Inhibition” value is reported as 2% and the Z score is reported as -0.3. For `Cn1cncc1CN1CCCC[C@H]1c1nc2ccccc2[nH]1`, the “% Inhibition” value was -1% and the Z score was 0.19. In the case of `Cc1cc([C@@](C)(O)CNC(=O)c2ccc(N3CCCC3)nc2)c(C)o1`, the “% Inhibition” value is reported as -5% and the Z score is reported as 0.46. For `Cc1nccc(O[C@H]2CCN(C(=O)CC(F)(F)F)C2)n1`, the “% Inhibition” value was -12% and the Z score was 1.83. With `CCN(CCO)S(=O)(=O)c1cc(C)sc1C` the “% Inhibition” value was -8% and the Z score was 1.16. `CCCCn1c(N)c(N(C(=O)c2ccc(=O)n(C)n2)C2CCCC2)c(=O)[nH]c1=O` was tested, and the “% Inhibition” value was -11% and the Z score was 1.47. `CC(=O)N(Cc1nn(C)c2c1CN(Cc1ccc(OCC(N)=O)cc1)CC2)c1ccccc1` was tested, and the “% Inhibition” value was -15% and the Z score was 2.59. With `O=C(COc1ccccc1)c1ccc2c(c1)N(Cc1nc(C(=O)NCC3CC3)co1)C(=O)CO2` the “% Inhibition” value was -7% and the Z score was 1.1. `Cc1nc(C(=O)NCc2ccc(S(=O)(=O)N3CCOCC3)s2)c[nH]1` was tested, and the “% Inhibition” value was 37% and the Z score was -3.71. For `CC(O)CC(CNC(C)C(C)(C)C)c1ccccc1` (stereo not drawn), the “% Inhibition” value was -5% and the Z score was 0.59. `Cc1noc(CN[C@H]2CCCc3cc(F)ccc32)n1` was tested, and the “% Inhibition” value was -3% and the Z score was 0.49. With `CCC[C@@H](C#N)NS(=O)(=O)c1ccc(C(=O)OC)nc1` the “% Inhibition” value was -7% and the Z score was 1.17. In the case of `C#CCNC(=O)NCc1ccccc1Br`, the “% Inhibition” value is reported as -5% and the Z score is reported as 0.52. For `O=C(O)CCN1CC[C@H](OCCCc2ccccc2)C1`, the “% Inhibition” value was -16% and the Z score was 2.35. For `O=C(CCn1ccc2cc(S(=O)(=O)N3CCCCC3)ccc21)N1CCN(c2ccccc2F)CC1`, the “% Inhibition” value was 33% and the Z score was -0.89. `Cc1noc(CCNC(=O)c2cccc(Br)c2C)n1` was tested, and the “% Inhibition” value was -5% and the Z score was 0.85. In the case of `O=C(COc1cccc(N2C(=O)c3cc(Cl)c(Cl)cc3C2=O)c1)c1ccc(F)cc1`, the “% Inhibition” value is reported as -6% and the Z score is reported as 1.12. For `CC[C@@H](c1cccnc1)N(C)C(=O)NCc1cncn1CC`, the “% Inhibition” value was 4% and the Z score was -0.45. With `C[C@@H](Cc1csc2ccccc12)NC(=O)c1ccc(F)c(F)c1` the “% Inhibition” value was -6% and the Z score was 0.74. With `CCCN(C(=O)[C@H]1CCCN(C2CCN(Cc3ccncc3)CC2)C1)C1CCCC1` the “% Inhibition” value was -9% and the Z score was 1.74. `Nc1nc(CN[C@H]2CCC(=O)N(CC3CC3)CC2)cs1` was tested, and the “% Inhibition” value was 6% and the Z score was -1.06. With `CCN1CCN(C(=O)Nc2cc(Cl)c3c(c2)NC(=O)CO3)[C@@H](C)C1=O` the “% Inhibition” value was -5% and the Z score was 0.94. With `CN(C(=O)c1c2n(c(=O)n1C)CCCC2)c1c(F)cccc1F` the “% Inhibition” value was -10% and the Z score was 1.87. For `Cc1nn(C(C)(C)C)c(C)c1C(=O)Nc1ccc(Nc2ccccc2)cc1`, the “% Inhibition” value was -4% and the Z score was 0.5. With `O=C(c1cccc(-n2cnnn2)c1)N1CCN(CCn2ncccc2=O)CC1` the “% Inhibition” value was -5% and the Z score was 0.67. `O=C(NCCn1ccnc1-c1ncccn1)c1ccc(Br)o1` was tested, and the “% Inhibition” value was -12% and the Z score was 1.48. With `CC[C@H](C)NC(=O)c1ccc(NS(C)(=O)=O)c(C)c1` the “% Inhibition” value was -11% and the Z score was 1.16. In the case of `Cc1cccc(C(=O)NCC[C@H]2CN(C(C)C)CCO2)c1Cl`, the “% Inhibition” value is reported as -17% and the Z score is reported as 2.55. For `CC(NC(=O)C1CCCCC(=O)N1)C(C)C1CCCCC1` (stereo not drawn), the “% Inhibition” value was -8% and the Z score was 0.91. In the case of `COCCn1ccc2c(NC(=O)CC[C@@H]3NC(=O)c4ccccc4N=C3O)cccc21`, the “% Inhibition” value is reported as -11% and the Z score is reported as 1.66. For `CC(C)CCc1nc(N2CCN(S(=O)(=O)Cc3ccccc3)CC2)c2cnn(-c3cccc(Cl)c3)c2n1`, the “% Inhibition” value was 0% and the Z score was 0.04. With `CN(Cc1ccc(Oc2ccccc2)o1)Cc1nncn1C` the “% Inhibition” value was -10% and the Z score was 2.01. In the case of `CC[C@@H](NS(=O)(=O)c1c(C)nn(C)c1C)c1ccccn1`, the “% Inhibition” value is reported as -7% and the Z score is reported as 0.71. `COc1ncnc2c1c(Br)cn2C` was tested, and the “% Inhibition” value was 0% and the Z score was 0.05. In the case of `Cn1nc2c(c1CNC(=O)[C@H]1CC1(C)C)CCCC2`, the “% Inhibition” value is reported as -8% and the Z score is reported as 0.99. With `c1nnc(C2CCN(c3nnc(C4CC4)o3)CC2)n1C1CC1` the “% Inhibition” value was -4% and the Z score was 0.67. With `c1ccc(CCNc2ncccc2-c2nc(-c3ccccc3)no2)cc1` the “% Inhibition” value was 22% and the Z score was -2.55. In the case of `CCCCN1CCc2ccc(NC(=O)C(C)C)cc21`, the “% Inhibition” value is reported as -9% and the Z score is reported as 0.93. `CCN(CC)CC(=O)NCC1CCCN(C)C1c1cccs1` (stereo not drawn) was tested, and the “% Inhibition” value was -2% and the Z score was 0.24. In the case of `COc1ccc(Cl)cc1N1CCC(N2C(=O)[C@@H]3CCCN3C2=O)C1` (stereo partly drawn), the “% Inhibition” value is reported as 2% and the Z score is reported as -0.32. `COCCOCCN(Cc1ccccc1)c1cc(C)nc2nc(C(F)(F)F)nn12` was tested, and the “% Inhibition” value was 11% and the Z score was -1.22. In the case of `Cc1nc(C2CCNCC2)cc(N(C)Cc2ccsc2)n1`, the “% Inhibition” value is reported as -3% and the Z score is reported as 0.36. For `C#CCn1ccnc1CNc1nc(C(C)C)no1`, the “% Inhibition” value was 1% and the Z score was -0.08. In the case of `CS(=O)(=O)N1CCC[C@H](CNC(=O)CC2CCCC2)C1`, the “% Inhibition” value is reported as -3% and the Z score is reported as 0.31. `Cc1nn(C)cc1C(C)NC(=O)C1CCCN1Cc1ccc(F)cc1` (stereo not drawn) was tested, and the “% Inhibition” value was 0% and the Z score was -0.02. `O=C(Cn1cnc2ccccc21)NCc1cccc(Oc2ccc(F)cc2)c1` was tested, and the “% Inhibition” value was 2% and the Z score was -0.39.
